Measured values published in PubChem BioAssay AID504706 (National Center for Advancing Translational Sciences (NCATS), 2011).
About 200 (0.062%) of roughly 320,000 compounds were called active. Inconclusive means that the source gave no clear call. Such entries were picked first, then a sample of the others. Calls come from the whole dose curve; as a rule, active = well fitted activation curve with a large enough effect; inconclusive = small, poorly fitted or top-dose-only effect; inactive = no such curve, though single readings can be large or run the other way. Potencies of inconclusive entries are left out as doubtful fits.

Experiment: qHTS assay for re-activators of p53 using a Luc reporter; note: nearly all actives have a fitted effect of over 45% in size
Settings: H1299 p53-A138V BP100-luciferase reporter, luminescence, 24 h; series mostly up to 92.2 µM
How it was run: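 p53-null H1299 cells stably carrying temperature-sensitive p53-A138V and a BP100-luciferase reporter were pinned with compounds (4-point, 1:5 series) and held 24 hrs at 37 deg C. Luminescence was read 10 min after detection reagent.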
Potency is the fitted concentration of half-maximal effect; tags give direction and shape of the fitted curve.

Question: For `Cc1cc(C)c(OCCCNC2CCCC2)c(Br)c1`, which Potency is on record?
Answer: inconclusive [activator, single point]

Question: With `Cc1ccc(-c2csc3ncn(CC(=O)O)c(=O)c23)cc1C` as the compound, how does the Potency read?
Answer: inconclusive [activator, partial curve, poor fit]

Question: For `COc1ccc2c(c1)c(=O)oc1c(C)c(OCc3cc(C(=O)O)oc3C)ccc12`, which Potency is on record?
Answer: inconclusive [activator, partial curve, poor fit]

Question: Which Potency does the source give for `CCOC(=O)N1CCN(c2ncnc3c2cnn3-c2ccc(Cl)cc2)CC1` here?
Answer: inactive

Question: For `O=C(O)c1cc(C(=O)O)cc(-c2ccc(/C=c3/sc4nc5ccccc5n4c3=O)o2)c1`, which Potency is on record?
Answer: inactive

Question: With `Cc1ccccc1/C=C1\CCCc2ccccc2C1=O` as the compound, how does the Potency read?
Answer: inconclusive [activator, partial curve, poor fit]

Question: Which Potency does the source give for `O=c1[nH]c(N/N=C\c2ccc3c(c2)OCO3)nc2ccccc12` here?
Answer: inconclusive [activator, partial curve, poor fit]

Question: Which Potency does the source give for `COc1cccc2sc3ccc(C#Cc4ccc(N)cc4)cc3c(=O)c12` here?
Answer: inactive

Question: For `COc1cc(C)ccc1OCC(=O)NC1CCCCCC1`, which Potency is on record?
Answer: inconclusive [activator, partial curve, poor fit]

Question: Which Potency does the source give for `COc1ccccc1N(C(=O)CCl)c1cn(C(C)=O)c2ccccc12` here?
Answer: inactive

Question: With `Cc1ccc2c(c1)cc1c(=O)[nH]ncn12` as the compound, how does the Potency read?
Answer: inactive

Question: With `Cc1nn(-c2ccccc2)c(/N=C/c2ccccc2O)c1-c1ccccc1` as the compound, how does the Potency read?
Answer: inconclusive [activator, partial curve, poor fit]

Question: Which Potency does the source give for `Cc1ccc(-c2nc(N3CCN(C)CC3)c3ccccc3n2)cc1` here?
Answer: inconclusive [activator, single point]

Question: Which Potency does the source give for `Cc1onc(-c2ccccc2Cl)c1C(=O)NCc1ccco1` here?
Answer: inactive

Question: With `CNC(=O)c1ccc(Nc2nnc(C)c3ccccc23)cc1` as the compound, how does the Potency read?
Answer: inactive

Question: With `Cc1cc(S(=O)(=O)Nc2ccc(C(=O)N3CCN(C(=O)c4ccco4)CC3)cc2)ccc1F` as the compound, how does the Potency read?
Answer: inactive

Question: With `Cn1c(CC(=O)NNC(=O)c2ccc(Cl)nc2)nc2ccccc21` as the compound, how does the Potency read?
Answer: inactive

Question: Which Potency does the source give for `CC(C)N(C(=O)c1nn(C)c2c1CSc1ccccc1-2)C1CCCCC1` here?
Answer: inactive

Question: With `C/C(=N\N=C(/N)c1nonc1N)c1ccc2c(c1)OCO2` as the compound, how does the Potency read?
Answer: inconclusive [activator, partial curve, poor fit]

Question: For `O=C(Nc1ccc2c(c1)OCO2)C1CC1`, which Potency is on record?
Answer: inconclusive [activator, partial curve, poor fit]

Question: For `N#Cc1ccsc1NC(=O)C1CCN(S(=O)(=O)c2cccs2)CC1`, which Potency is on record?
Answer: inactive

Question: For `Cc1ccc([N+](=O)[O-])cc1N=Cc1ccc(Br)s1`, which Potency is on record?
Answer: inconclusive [activator, partial curve, poor fit]

Question: Which Potency does the source give for `O=C1CSC(c2ccc(F)cc2)N1c1nc2ccccc2s1` (centres undefined) here?
Answer: inactive

Question: For `COc1cccc(CNC(=O)CCCn2ccc3cc(S(=O)(=O)N4CCCC4)ccc32)c1`, which Potency is on record?
Answer: inactive

Question: With `COc1ccc(S(=O)(=O)N(CC(=O)N/N=C/c2cccs2)c2cc(C)cc(C)c2)cc1OC` as the compound, how does the Potency read?
Answer: inactive

Question: For `Cc1[nH]n(-c2cccc3ccccc23)c(=O)c1/C=N/NC(=O)c1cccc([N+](=O)[O-])c1`, which Potency is on record?
Answer: inconclusive [activator, partial curve, poor fit]

Question: For `O=C(COC(=O)c1cc(Cl)ccc1O)NNC(=O)c1ccccc1F`, which Potency is on record?
Answer: inactive

Question: For `Cc1ccc(-c2cc(C(=O)O)c3ccccc3n2)s1`, which Potency is on record?
Answer: inactive

Question: Which Potency does the source give for `O=C1NCCCC1C(=O)N/N=C/c1ccccc1[N+](=O)[O-]` (centres undefined) here?
Answer: inactive

Question: With `Cc1ccc(Nc2nc(N)nc(COC(=O)C3=COCCO3)n2)cc1` as the compound, how does the Potency read?
Answer: inconclusive [activator, partial curve, poor fit]

Question: For `O=C(NC(=S)Nc1ccccc1Cl)C1CC1`, which Potency is on record?
Answer: inconclusive [activator, partial curve, poor fit]

Question: With `CC(C)CNC(=S)NC(=O)c1ccccc1Cl` as the compound, how does the Potency read?
Answer: inconclusive [activator, partial curve, poor fit]

Question: With `O=C(CN1C(=O)S/C(=C\C=C\c2ccccc2)C1=O)NC1CCS(=O)(=O)C1` (centres undefined) as the compound, how does the Potency read?
Answer: inconclusive [activator, partial curve, poor fit]

Question: Which Potency does the source give for `COc1ccccc1CNC(=O)Cn1cccc1C(=O)c1ccccc1C` here?
Answer: inconclusive [activator, partial curve, poor fit]

Question: With `CC(C)C(=O)NCC(c1ccc2c(c1)OCO2)N1CCOCC1` (centres undefined) as the compound, how does the Potency read?
Answer: inconclusive [activator, single point]

Question: With `O=C(Nc1ccc([N+](=O)[O-])cc1)c1ccccc1F` as the compound, how does the Potency read?
Answer: inactive

Question: For `CCOC(=O)N1CCN(S(=O)(=O)c2c(C)[nH]c(=O)[nH]c2=O)CC1`, which Potency is on record?
Answer: inactive

Question: Which Potency does the source give for `O=C(CSc1nnc(NC(=O)c2ccco2)s1)Nc1ccc2c(c1)OCCO2` here?
Answer: inconclusive [activator, single point]

Question: With `O=C(CN1C(=O)c2ccccc2S1(=O)=O)Nc1ccc(S(=O)(=O)Nc2ncccn2)cc1` as the compound, how does the Potency read?
Answer: inactive

Question: With `CCCC(=O)Nc1nnc(SCC)s1` as the compound, how does the Potency read?
Answer: inactive

Question: Which Potency does the source give for `CCN(CC)CCCNC(=O)c1ccc(N2CCCCC2)c(NS(=O)(=O)c2ccc(C)cc2)c1` here?
Answer: inconclusive [activator, full curve, poor fit]

Question: Which Potency does the source give for `CCN1C(=O)S/C(=C\c2ccc(N3CCOCC3)cc2C)C1=O` here?
Answer: inconclusive [activator, partial curve, poor fit]

Question: With `CCCCC(=O)Nc1cc(C(=O)NCCc2ccccc2)ccc1Cl` as the compound, how does the Potency read?
Answer: inactive

Question: For `O=C(c1ccc(OC2CCN(CCc3ccccc3)CC2)cc1)N1CCCC(CCCO)C1` (centres undefined), which Potency is on record?
Answer: inactive

Question: Which Potency does the source give for `Cn1c(SCc2cccc(F)c2)nnc1-c1ccccn1` here?
Answer: inconclusive [activator, partial curve, poor fit]

Question: For `CNC(=O)CSc1nc2cc(S(=O)(=O)Nc3ccccc3OC)ccc2o1`, which Potency is on record?
Answer: inactive

Question: For `O=C(Nc1ccc(NC(=S)NC(=O)c2cccs2)cc1)c1ccco1`, which Potency is on record?
Answer: inactive

Question: Which Potency does the source give for `c1ccc(CSc2nnc(-c3ccco3)n2Cc2ccccc2)cc1` here?
Answer: inconclusive [activator, partial curve, poor fit]

Question: With `Cc1cc(C(C)(C)C)cc(C)c1S(=O)(=O)N1CC(=O)Nc2ccccc21` as the compound, how does the Potency read?
Answer: inactive
